Measured values: article PMC10334784 (Proceedings of the National Academy of Sciences of the …, 2023)

Biological target: T1, HCoV-OC43 nucleocapsid (N) protein, 2X-StrepTag tagged (HCoV-OC43, UniProt P33469 1-448)
T1 sequence: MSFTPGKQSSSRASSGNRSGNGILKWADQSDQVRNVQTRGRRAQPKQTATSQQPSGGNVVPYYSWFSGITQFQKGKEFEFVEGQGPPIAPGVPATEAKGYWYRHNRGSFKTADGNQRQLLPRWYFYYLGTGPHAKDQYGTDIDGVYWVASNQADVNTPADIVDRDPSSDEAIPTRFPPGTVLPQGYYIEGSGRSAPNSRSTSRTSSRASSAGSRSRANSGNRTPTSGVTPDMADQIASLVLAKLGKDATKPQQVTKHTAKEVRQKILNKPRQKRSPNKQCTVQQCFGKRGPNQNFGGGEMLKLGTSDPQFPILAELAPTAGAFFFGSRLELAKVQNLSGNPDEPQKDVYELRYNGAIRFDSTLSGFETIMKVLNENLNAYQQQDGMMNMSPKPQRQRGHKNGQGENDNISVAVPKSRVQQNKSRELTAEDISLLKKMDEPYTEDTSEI
Test: BLI

B1: CCL20 (ligand)
chain: not shown
With B1 the Kd was 1.8 µM, the koff was 0.017 s⁻¹ and the kon was 18000 M⁻¹ s⁻¹.
